Data reported in the supplement of paper PMC6531468.
The list shows a part of the results. Read counts after selection give these values, which scatter widely. Scores sum up all selected molecules that hold the word; the word was not tested alone.

How the values were obtained:
Assay in all cases: 6-mer SELEX enrichment z-score vs GST control; IMP3 is the RNA-binding protein IGF2BP3; higher = more enriched by binding
[1] = test system: IMP3 KH1-4; conditions: construct: KH1-4 (164-579); SELEX round: R4
Sequence of IMP3 KH1-4 (chain, as listed by the source): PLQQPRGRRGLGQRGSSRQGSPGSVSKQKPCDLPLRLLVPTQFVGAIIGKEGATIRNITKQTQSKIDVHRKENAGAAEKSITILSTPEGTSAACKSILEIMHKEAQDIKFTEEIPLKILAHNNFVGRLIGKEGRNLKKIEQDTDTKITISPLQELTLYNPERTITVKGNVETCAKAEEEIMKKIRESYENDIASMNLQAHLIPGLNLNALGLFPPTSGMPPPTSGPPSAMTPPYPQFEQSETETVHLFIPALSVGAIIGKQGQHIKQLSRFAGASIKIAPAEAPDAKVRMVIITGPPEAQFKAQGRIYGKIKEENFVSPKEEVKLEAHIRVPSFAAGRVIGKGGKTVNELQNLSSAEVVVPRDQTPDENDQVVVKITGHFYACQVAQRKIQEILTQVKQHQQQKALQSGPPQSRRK
Method: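 SELEX-seq with GST-tagged IMP3 KH1-4 (Pro164-Lys579) and an N40 RNA pool, round 4. 6-mer z-score of sequence-tag enrichment normalised to the corresponding GST SELEX round; RNA k-mers written as DNA (T for U).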

[2] = test system: IMP3 RRM1-2; conditions: construct: RRM1-2 (1-163); SELEX round: R2
Sequence of IMP3 RRM1-2 (chain, as listed by the source): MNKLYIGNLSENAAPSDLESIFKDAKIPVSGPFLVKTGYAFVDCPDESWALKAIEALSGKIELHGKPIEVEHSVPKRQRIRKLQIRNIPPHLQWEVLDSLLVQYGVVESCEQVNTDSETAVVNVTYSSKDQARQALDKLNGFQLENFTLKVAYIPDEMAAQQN
Method: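 SELEX-seq with GST-tagged IMP3 RRM1-2 (Met1-Asn163) and an N40 RNA pool, round 2. 6-mer enrichment z-score normalised to GST SELEX. RNA written as DNA (T = U).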

[3] = target: IMP3 full-length (UniProt O00425); conditions: construct: FL IMP3 (1-579); SELEX round: R4
Sequence of UniProt O00425 (O00425 whole entry): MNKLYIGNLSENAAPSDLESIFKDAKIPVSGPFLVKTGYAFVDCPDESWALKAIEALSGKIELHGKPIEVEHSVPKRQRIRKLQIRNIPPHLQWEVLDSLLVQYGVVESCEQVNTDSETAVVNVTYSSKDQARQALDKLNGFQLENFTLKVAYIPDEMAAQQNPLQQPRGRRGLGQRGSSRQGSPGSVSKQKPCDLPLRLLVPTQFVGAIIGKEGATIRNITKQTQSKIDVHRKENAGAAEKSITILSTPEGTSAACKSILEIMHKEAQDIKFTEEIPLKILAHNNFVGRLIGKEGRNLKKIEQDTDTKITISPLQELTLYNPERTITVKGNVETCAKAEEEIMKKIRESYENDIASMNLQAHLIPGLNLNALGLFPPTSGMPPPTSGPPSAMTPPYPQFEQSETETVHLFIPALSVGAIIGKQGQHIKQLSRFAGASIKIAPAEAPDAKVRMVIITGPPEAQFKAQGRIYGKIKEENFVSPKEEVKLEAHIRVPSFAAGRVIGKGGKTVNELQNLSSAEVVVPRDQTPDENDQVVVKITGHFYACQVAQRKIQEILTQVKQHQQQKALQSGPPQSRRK
Method: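 SELEX-seq with GST-tagged full-length IMP3 and an N40 RNA pool, round 4. Each 6-mer is scored as an enrichment z-score of sequence tags containing it, normalised to the matching GST SELEX round. RNA written as DNA (T = U).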

[4] = test system: IMP3 KH1-2; conditions: construct: KH1-2 (164-376); SELEX round: R4
Sequence of IMP3 KH1-2 (chain, as listed by the source): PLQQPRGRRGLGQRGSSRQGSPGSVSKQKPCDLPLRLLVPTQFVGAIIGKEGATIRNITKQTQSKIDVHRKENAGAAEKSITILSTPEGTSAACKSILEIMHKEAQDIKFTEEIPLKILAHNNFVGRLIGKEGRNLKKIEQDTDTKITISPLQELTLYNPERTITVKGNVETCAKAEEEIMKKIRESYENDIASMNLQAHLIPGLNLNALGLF
Method: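 SELEX-seq with GST-tagged IMP3 KH1-2 (Pro164-Phe376) and an N40 RNA pool, round 4 (stringent 300/600 mM KCl washes). 6-mer z-score of sequence-tag enrichment normalised to the corresponding GST SELEX round; RNA k-mers written as DNA (T for U).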

[5] = test system: IMP3 KH3-4; conditions: construct: KH3-4 (377-579); SELEX round: R4
Sequence of IMP3 KH3-4 (chain, as listed by the source): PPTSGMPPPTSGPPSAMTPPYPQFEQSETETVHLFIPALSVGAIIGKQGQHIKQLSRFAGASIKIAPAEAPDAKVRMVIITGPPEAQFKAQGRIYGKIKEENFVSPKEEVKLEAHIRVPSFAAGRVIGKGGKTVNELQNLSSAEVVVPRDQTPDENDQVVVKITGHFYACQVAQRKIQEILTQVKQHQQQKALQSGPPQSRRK
Method: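 SELEX-seq with GST-tagged IMP3 KH3-4 (Pro377-Lys579) and an N40 RNA pool, round 4. 6-mer z-score of sequence-tag enrichment normalised to the corresponding GST SELEX round; RNA k-mers written as DNA (T for U).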

Sequence | 6-mer SELEX enrichment z-score [1] | 6-mer SELEX enrichment z-score [2] | 6-mer SELEX enrichment z-score [3] | 6-mer SELEX enrichment z-score [4] | 6-mer SELEX enrichment z-score [5]
AAGACC | -1.57 | -1.84 | -2.01 | -1.36 | -1.73
TATCCT | -0.186 | 0.065 | -0.48 | -0.193 | -0.28
ACACCC | -1.49 | -0.539 | -1.68 | -1.53 | -2.67
CTCGTT | -0.393 | 0.409 | -0.071 | -0.287 | -0.19
CTACTA | 0.606 | 0.341 | -0.201 | 0.691 | 0.628
TGGTAG | -0.076 | 0.296 | 0.095 | -0.029 | 0.089
TTTTCG | -0.034 | 0.349 | -0.042 | -0.001 | 0.134
GCCAGG | 0.343 | -0.262 | 0.671 | 0.314 | 0.187
AGGCAA | 1.05 | 0.432 | 1.17 | 0.528 | 1.36
TGCATG | 0.896 | 0.256 | 0.48 | 0.575 | 0.637
TCTGAA | -0.155 | -0.401 | -0.366 | -0.12 | -0.118
CGGGCG | -2.22 | 0.151 | -0.339 | -1.82 | -1.8
AACTTC | 0.383 | -0.043 | -0.205 | 0.558 | 0.052
TGGTCA | 0.275 | 0.318 | 0.326 | 0.117 | 0.164
CGTGGA | -0.906 | -0.427 | -0.666 | -0.931 | -0.899
AGTCTC | -0.276 | 0.613 | 0.586 | -0.133 | -0.128
TTCCCC | 0.285 | -0.359 | -0.615 | 0.171 | -0.548
CAGCAA | 0.287 | 0.95 | 1.24 | 0.352 | -0.063
CTTCCA | 0.56 | 0.386 | -0.116 | 0.431 | -0.008
GGCGCC | -0.601 | 0.186 | 0.72 | -0.338 | -0.496
